Experimental findings from the supplement of paper PMC4604168 (melanoma cell lines) are described below.

SMILES strings stand for the structures. Some of the results follow. Most values come without repeats; read them as rough.
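Further: cell number obtained by counting DAPI-stained nuclei in high-throughput microscope images with image analysis software, screen run in 1,536-well plates.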

This experiment deals with WM1716. Description: cell count relative to DMSO control; melanoma cells; higher = more viable cells. The conditions noted are these: library dose: low library concentration; 72 h.
In turn, `O=C1NC(=O)/C(=C/c2ccc(-c3ccc(F)cc3O)o2)S1` + O=C(Oc1ccc([N+](=O)[O-])cc1)N1CCC(C(O)(c2ccc3c(c2)OCO3)c2ccc3c(c2)OCO3)CC1 [JZL184] (first compound 1 µM, partner dose 1 µM) registered a cell count of 93.2%.

`O=C(O)c1ccc2c(c1)nc(Nc1cccc(Cl)c1)c1ccncc12` + C[As](C)SC[C@H](NC(=O)CC[C@H](N)C(=O)O)C(=O)NCC(=O)O [Darinaparsin] (first compound 0.4 µM, partner dose 0.4 µM) displayed a cell count of 87.3%.

On to `CN1CCN(c2ccc3nc(-c4c(N)c5c(F)cccc5[nH]c4=O)[nH]c3c2)CC1` [Dovitinib] + C/C(O)=C(\C#N)C(=O)Nc1cc(Br)ccc1Br [LFM-A13] (first compound 0.1 µM, partner dose 2 µM), for which the cell count was 107%.

`O=C(O)c1ccc2c(c1)nc(Nc1cccc(Cl)c1)c1ccncc12` + Cc1cc(SCc2sc(-c3ccc(C(F)(F)F)c(F)c3)nc2C)ccc1OCC(=O)O [GW0742] (first compound 0.4 µM, partner dose 2 µM): the cell count amounted to 96.6%.

Molecule `CN1CCN(c2ccc3nc(-c4c(N)c5c(F)cccc5[nH]c4=O)[nH]c3c2)CC1` [Dovitinib] + C[As](C)SC[C@H](NC(=O)CC[C@H](N)C(=O)O)C(=O)NCC(=O)O [Darinaparsin] (first compound 0.1 µM, partner dose 0.4 µM) came in with a cell count of 114%.

Molecule `Cc1cc(Nc2cc(N3CCN(C)CC3)nc(Sc3ccc(NC(=O)C4CC4)cc3)n2)n[nH]1` [Tozasertib] + N.N.[Cl][Pt][Cl] [cisplatin] (first compound 0.006 µM, partner dose 1.6 µM) gave a cell count of 80.3%.

In the case of `CN1CCN(c2ccc3nc(-c4c(N)c5c(F)cccc5[nH]c4=O)[nH]c3c2)CC1` [Dovitinib] + O=C(Oc1ccc([N+](=O)[O-])cc1)N1CCC(C(O)(c2ccc3c(c2)OCO3)c2ccc3c(c2)OCO3)CC1 [JZL184] (first compound 0.1 µM, partner dose 1 µM), the cell count was 88%.

`Clc1ccc(Nc2nnc(Cc3ccncc3)c3ccccc23)cc1` [vatalanib] + C/C(O)=C(\C#N)C(=O)Nc1cc(Br)ccc1Br [LFM-A13] (first compound 2 µM, partner dose 2 µM) gave a cell count of 88.1%.

Molecule `CC(C)C[C@H](NC(=O)[C@H](Cc1ccccc1)NC(=O)c1cnccn1)B(O)O` [Bortezomib] + C[As](C)SC[C@H](NC(=O)CC[C@H](N)C(=O)O)C(=O)NCC(=O)O [Darinaparsin] (first compound 0.001 µM, partner dose 0.4 µM) gave a cell count of 27.3%.

Consider `Cc1cc([N+](=O)[O-])ccc1NS(=O)(=O)c1cc(Cl)ccc1Cl` + O=C(Oc1ccc([N+](=O)[O-])cc1)N1CCC(C(O)(c2ccc3c(c2)OCO3)c2ccc3c(c2)OCO3)CC1 [JZL184] (first compound 1 µM, partner dose 1 µM), for which the cell count turned out to be 85.2%.

Consider `Cc1cc(Nc2cc(N3CCN(C)CC3)nc(Sc3ccc(NC(=O)C4CC4)cc3)n2)n[nH]1` [Tozasertib] + Cn1cc(C2=C(c3cn(C4CCN(Cc5ccccn5)CC4)c4ccccc34)C(=O)NC2=O)c2ccccc21 [Enzastaurin] (first compound 0.006 µM, partner dose 0.8 µM), for which the cell count was found to be 118%.

The molecule `Cc1cc(Nc2cc(N3CCN(C)CC3)nc(Sc3ccc(NC(=O)C4CC4)cc3)n2)n[nH]1` [Tozasertib] + O=C(Oc1ccc([N+](=O)[O-])cc1)N1CCC(C(O)(c2ccc3c(c2)OCO3)c2ccc3c(c2)OCO3)CC1 [JZL184] (first compound 0.006 µM, partner dose 1 µM) gave a cell count of 82.7%.

In turn, `Oc1cc(-c2nc(-c3ccccc3)[nH]c2-c2ccncc2)ccc1Cl` + C/C(O)=C(\C#N)C(=O)Nc1cc(Br)ccc1Br [LFM-A13] (first compound 0.2 µM, partner dose 2 µM) showed a cell count of 112%.

Regarding `O=C(O)C(=O)Nc1sc2c(c1C(=O)O)CCNC2` + O=C(Oc1ccc([N+](=O)[O-])cc1)N1CCC(C(O)(c2ccc3c(c2)OCO3)c2ccc3c(c2)OCO3)CC1 [JZL184] (first compound 1.66667 µM, partner dose 1 µM), the cell count came out at 107%.

`C#Cc1cccc(Nc2ncnc3cc(OCCOC)c(OCCOC)cc23)c1` [erlotinib] + C[As](C)SC[C@H](NC(=O)CC[C@H](N)C(=O)O)C(=O)NCC(=O)O [Darinaparsin] (first compound 0.8 µM, partner dose 0.4 µM) registered a cell count of 95.1%.
